Measured values taken from PubChem BioAssay AID504333 (National Center for Advancing Translational Sciences (NCATS), 2011).
Out of some 360,000 compounds screened, about 16,000 (4.4%) were called active. The shares of active, inactive and inconclusive entries below differ from those in the screen. Calls follow the shape of the dose curve; as a rule, active = well fitted inhibition curve with a large enough effect; inconclusive = small, poorly fitted or top-dose-only effect; inactive = no such curve, though single readings can be large or run the other way. Where the call is inconclusive, the potency comes from a doubtful curve fit.

Target: Bromodomain adjacent to zinc finger domain protein 2B (Homo sapiens) (UniProt Q9UIF8)
Test: qHTS Assay for Inhibitors of BAZ2B; also: nearly all actives have a fitted effect of over 60% in size
Conditions: AlphaScreen BAZ2B-H3K14Ac peptide displacement; series mostly up to 114 µM
Outline: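 Protein-peptide AlphaScreen: BAZ2B 50 nM, b-H3K14Ac 50 nM, 1x PBS pH 7.4 + 0.01% Tween-20. Preincubation 30 min RT; cpd 30 min RT (top 110 uM); beads 20 min RT, light-protected.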
Potency is read from the fitted curve at half-maximal effect; tags tell the direction and shape of the fitted curve.

UniProt Q9UIF8, sequence (Q9UIF8 whole entry, looked up, the tested form may be a part): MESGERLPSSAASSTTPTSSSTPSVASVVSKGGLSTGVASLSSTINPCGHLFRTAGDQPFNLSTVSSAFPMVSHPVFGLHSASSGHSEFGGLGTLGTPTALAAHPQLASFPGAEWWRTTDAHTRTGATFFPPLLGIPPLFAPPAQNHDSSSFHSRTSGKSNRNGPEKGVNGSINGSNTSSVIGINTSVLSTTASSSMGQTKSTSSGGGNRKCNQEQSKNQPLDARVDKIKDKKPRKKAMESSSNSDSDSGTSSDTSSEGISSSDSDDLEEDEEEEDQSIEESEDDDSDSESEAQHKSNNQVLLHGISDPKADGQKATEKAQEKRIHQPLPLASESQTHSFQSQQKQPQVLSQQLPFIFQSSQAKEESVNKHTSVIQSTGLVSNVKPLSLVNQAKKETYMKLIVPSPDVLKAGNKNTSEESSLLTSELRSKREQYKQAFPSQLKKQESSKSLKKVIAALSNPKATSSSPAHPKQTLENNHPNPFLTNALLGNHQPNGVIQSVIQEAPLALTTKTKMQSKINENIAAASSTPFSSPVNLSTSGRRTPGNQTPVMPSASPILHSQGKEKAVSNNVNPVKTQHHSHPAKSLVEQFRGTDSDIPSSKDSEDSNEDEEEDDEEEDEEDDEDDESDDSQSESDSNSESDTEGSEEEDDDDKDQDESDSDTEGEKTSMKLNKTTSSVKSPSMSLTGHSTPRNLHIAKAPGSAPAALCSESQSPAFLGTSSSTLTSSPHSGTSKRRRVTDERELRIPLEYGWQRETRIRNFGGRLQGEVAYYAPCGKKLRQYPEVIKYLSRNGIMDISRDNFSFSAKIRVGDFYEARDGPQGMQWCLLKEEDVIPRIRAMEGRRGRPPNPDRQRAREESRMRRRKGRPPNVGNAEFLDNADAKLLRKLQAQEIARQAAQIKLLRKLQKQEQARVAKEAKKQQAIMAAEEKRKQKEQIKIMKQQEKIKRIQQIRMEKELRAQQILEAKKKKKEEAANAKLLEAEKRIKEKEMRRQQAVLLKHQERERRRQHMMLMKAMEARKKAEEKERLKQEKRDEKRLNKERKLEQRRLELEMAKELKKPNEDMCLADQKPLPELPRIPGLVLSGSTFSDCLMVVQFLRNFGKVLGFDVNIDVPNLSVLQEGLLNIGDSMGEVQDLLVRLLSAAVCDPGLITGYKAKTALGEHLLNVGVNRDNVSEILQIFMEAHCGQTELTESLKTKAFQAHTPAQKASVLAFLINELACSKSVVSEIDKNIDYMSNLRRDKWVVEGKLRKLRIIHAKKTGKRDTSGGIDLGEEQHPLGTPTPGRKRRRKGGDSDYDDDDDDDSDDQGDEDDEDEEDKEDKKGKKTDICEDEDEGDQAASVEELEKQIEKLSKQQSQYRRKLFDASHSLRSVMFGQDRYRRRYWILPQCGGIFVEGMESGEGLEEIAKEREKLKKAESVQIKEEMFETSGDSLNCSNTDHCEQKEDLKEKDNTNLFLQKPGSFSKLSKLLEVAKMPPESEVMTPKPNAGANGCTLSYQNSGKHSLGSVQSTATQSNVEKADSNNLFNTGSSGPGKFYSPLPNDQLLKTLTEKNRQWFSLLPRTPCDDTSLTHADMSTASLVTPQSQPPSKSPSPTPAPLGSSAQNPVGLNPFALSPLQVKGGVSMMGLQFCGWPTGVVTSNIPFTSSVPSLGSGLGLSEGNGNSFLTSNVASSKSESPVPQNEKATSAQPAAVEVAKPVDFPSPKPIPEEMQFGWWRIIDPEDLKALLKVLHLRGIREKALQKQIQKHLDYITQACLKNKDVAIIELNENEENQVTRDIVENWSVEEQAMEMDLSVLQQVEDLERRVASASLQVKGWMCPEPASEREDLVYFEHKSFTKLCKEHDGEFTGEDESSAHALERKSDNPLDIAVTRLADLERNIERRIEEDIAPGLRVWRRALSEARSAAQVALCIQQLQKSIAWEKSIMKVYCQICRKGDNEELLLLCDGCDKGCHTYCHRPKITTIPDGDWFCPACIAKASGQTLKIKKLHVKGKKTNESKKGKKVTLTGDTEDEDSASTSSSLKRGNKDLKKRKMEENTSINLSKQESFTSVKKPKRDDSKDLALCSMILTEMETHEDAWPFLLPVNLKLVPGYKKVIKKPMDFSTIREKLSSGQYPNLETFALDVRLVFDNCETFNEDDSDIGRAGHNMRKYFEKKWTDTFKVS

| SMILES | Potency |
| --- | --- |
| COc1cc(NC(=O)c2cc([N+](=O)[O-])ccc2Br)ccc1NC(=O)c1ccco1 | inconclusive: 70.8 µM [inhibitor, single point] |
| CC(C)(C)c1ccccc1OCC(=O)Nc1ncn[nH]1 | inconclusive: 89.1 µM [inhibitor, single point] |
| CC1=[N+]([O-])C(C)(C)CC(C)(C)c2ccccc21 | inconclusive: 89.1 µM [inhibitor, single point] |
| O=C(O)c1cccc(Cn2c(Cl)c(/C=N/NC(=O)c3ccccc3)sc2=O)c1 | inactive |
| Cc1cc(NC(=O)COc2ccc3oc4ccccc4c3c2)no1 | inactive |
| CCOC(=O)c1c(C)[nH]c(C(=O)/C(C#N)=C/c2ccc(OCC)cc2)c1C | inconclusive: 79.4 µM [inhibitor, single point] |
| Cc1ccccc1Nc1c(-c2ccc(N3CCOCC3)cc2)nc2ncccn12 | inconclusive: 39.8 µM [inhibitor, partial curve] |
| Cc1c(CNC(C)CCc2ccccc2)c(C(=O)O)c(C)n1Cc1ccc(F)cc1Cl (stereo not drawn) | inactive |
| O=C(Nc1ncc(Cc2ccccc2Cl)s1)c1ccc([N+](=O)[O-])cc1 | inconclusive: 39.8 µM [inhibitor, full curve, poor fit] |
| COc1ccc(OCC(=O)NCC(c2ccc(Cl)cc2)N2CCCCC2)cc1 (stereo not drawn) | inactive |
| COc1ccccc1/C=N/NC(=O)c1cc2c(OC)c(OC)ccc2[nH]1 | inconclusive: 79.4 µM [inhibitor, single point] |
| CSc1ccc(CNC(=O)c2ccccc2NC(=O)c2nsc3ccccc23)cc1 | inactive |
| COC(=O)c1cc2c(ccn2-c2ccc(F)cc2)n1Cc1cccc(OC)c1 | inactive |
| COc1ccc(-c2c3c(=O)n(C)c(=O)n(C)c3cn2Cc2ccccn2)cc1 | active: 50.1 µM |
| Cc1ccc(S(=O)(=O)N2CCN(C(=O)c3ccc(N4CCCCC4)c([N+](=O)[O-])c3)CC2)cc1 | inconclusive: 6.31 µM [inhibitor, full curve] |
| Cc1nc2c(C)cccn2c1/C(O)=C1\C(=O)C(=O)N(CCN2CCOCC2)C1c1ccncc1 (stereo not drawn) | active: 79.4 µM |
| COc1cc2c(cc1OC)CN(Cc1ccc(OC)c(C)c1OC)CC2 | active: 50.1 µM |
| CCC(C(=O)NC1CC1)n1nc(C)c2c(C)n(-c3ccc(C)cc3)nc2c1=O (stereo not drawn) | inactive |
| CCOc1ccc(NC(=O)C2CCCN(S(=O)(=O)c3cccc4nsnc34)C2)cc1 (stereo not drawn) | inactive |
| Cc1ccc([N+](=O)[O-])cc1N=C(c1ccc([N+](=O)[O-])cc1)N1CCOCC1 | inconclusive: 89.1 µM [inhibitor, single point] |
| CCCCn1c(N)c(N(CCOC)C(=O)c2ccc(-c3ccc(C(C)=O)cc3)o2)c(=O)[nH]c1=O | active: 70.8 µM |
| CC(=O)NC1C(=O)N=C(SCC(=O)Nc2c(C)cccc2C)NC1=O (stereo not drawn) | inconclusive: 89.1 µM [inhibitor, single point] |

| SMILES | Potency |
| --- | --- |
| Cc1nn(-c2ccc(N3CCCCC3)nn2)c(C)c1CCC(=O)NCc1ccccc1F | inconclusive: 89.1 µM [inhibitor, single point] |
| O=C(CNCc1ccccc1Cl)Nc1ccccc1N1CCCCC1 | active: 22.4 µM |
| CN(C)c1ccc(C(=S)N2CCN(C(=S)Nc3ccccc3)CC2)cc1 | inconclusive: 28.2 µM [inhibitor, full curve] |
| COc1ccc(-n2nc3c(N4CCCC(C(=O)NCCc5ccc(C)cc5)C4)nnc(C)c3c2C)cc1 (stereo not drawn) | inconclusive: 89.1 µM [inhibitor, single point] |
| Cc1ccc2c(c1)C(c1ccc(F)cc1)N(C(=O)c1ccccc1Br)CC(=O)N2 (stereo not drawn) | inactive |
| O=C(c1ccccc1F)N1CCN(c2cnn(-c3cccc(Cl)c3)c(=O)c2Cl)CC1 | inactive |
| CN(C)N=C1c2cc(S(=O)(=O)N(C)C)ccc2-c2ccc(S(=O)(=O)N(C)C)cc21 | inconclusive: 3.98 µM [inhibitor, full curve] |
| Cc1ccc(C(=O)COC(=O)c2cnccn2)cc1 | inactive |
| CCC(C)(C)C1CCC2(CC1)NC(=O)N(CC(=O)Nc1nc(-c3ccc(C)cc3)cs1)C2=O (stereo not drawn) | inconclusive: 28.2 µM [inhibitor, single point] |
| O=C(CCCn1c(=O)c2sccc2n(CC(=O)OCc2ccccc2)c1=O)NCc1ccco1 | inconclusive: 79.4 µM [inhibitor, single point] |
| O=C(Nc1ccc2c(c1)OCO2)C1CCN(Cc2cnn(-c3ccccc3)c2-n2cccc2)CC1 | inconclusive: 44.7 µM [inhibitor, partial curve] |
| COC(=O)c1cc(CC(=O)c2ccc(O)cc2O)c(C)o1 | inconclusive: 89.1 µM [inhibitor, single point] |
| COc1ccc(-n2cc(-c3ccccc3)nc2SCC(=O)Nc2ccccc2)cc1Cl | inconclusive: 11.2 µM [inhibitor, full curve] |
| Cc1cc(C(=O)COC(=O)c2ccc[nH]c2=O)c(C)n1C1CC1 | inconclusive: 70.8 µM [inhibitor, single point] |
| COC(=O)CCCC1=CC2=C(c3ccccc3)C(=O)C(C)(OC(=O)C3CCCC3)C(=O)C2=CN1C1CCCC1 (stereo not drawn) | inconclusive: 79.4 µM [inhibitor, partial curve] |
| CC1CCCN(c2ccc(C(=O)OCn3nnc4ccccc4c3=O)cc2[N+](=O)[O-])C1 (stereo not drawn) | inconclusive: 3.98 µM [inhibitor, full curve, poor fit] |
| CCOC(=O)c1cnc2ccc(C(=O)OC)cc2c1Nc1ccc(C(=O)O)cc1 | inconclusive: 50.1 µM [inhibitor, partial curve] |
| O=c1c2ccccc2sn1-c1ccccc1 | active: 7.94 µM |
| Cc1cccc(C)c1NC(=O)COC(=O)C1CC(=O)N(Cc2ccccc2)C1 (stereo not drawn) | inconclusive: 56.2 µM [inhibitor, partial curve] |
| COc1ccc(N=C2S/C(=C\c3ccc(N4CCOCC4)o3)C(=O)N2CCc2c[nH]c3ccccc23)cc1 | active: 39.8 µM |
| CN(CC(=O)Nc1cccc(F)c1)C(=O)c1ccc(N2CCCCCC2)c([N+](=O)[O-])c1 | inconclusive: 35.5 µM [inhibitor, full curve] |
